The other results are listed elsewhere or left out. These are enrichments in a pooled selection; single values are uncertain. Scores sum up all selected molecules that hold the word; the word was not tested alone.
Assays:
Assay in all cases: 6-mer SELEX enrichment z-score vs GST control; IMP3 is the RNA-binding protein IGF2BP3; higher = more enriched by binding
IMP3 KH1-4 = settings: construct: KH1-4 (164-579); SELEX round: R4
Description: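 SELEX-seq with GST-tagged IMP3 KH1-4 (Pro164-Lys579) and an N40 RNA pool, round 4. 6-mer z-score of sequence-tag enrichment normalised to the corresponding GST SELEX round; RNA k-mers written as DNA (T for U).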

IMP3 RRM1-2 = settings: construct: RRM1-2 (1-163); SELEX round: R2
Description: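 SELEX-seq with GST-tagged IMP3 RRM1-2 (Met1-Asn163) and an N40 RNA pool, round 2. 6-mer enrichment z-score normalised to GST SELEX. RNA written as DNA (T = U).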

IMP3 full-length = IMP3 full-length (UniProt O00425); settings: construct: FL IMP3 (1-579); SELEX round: R4
Description: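 SELEX-seq with GST-tagged full-length IMP3 and an N40 RNA pool, round 4. Each 6-mer is scored as an enrichment z-score of sequence tags containing it, normalised to the matching GST SELEX round. RNA written as DNA (T = U).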

IMP3 KH1-2 = settings: construct: KH1-2 (164-376); SELEX round: R4
Description: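 SELEX-seq with GST-tagged IMP3 KH1-2 (Pro164-Phe376) and an N40 RNA pool, round 4 (stringent 300/600 mM KCl washes). 6-mer z-score of sequence-tag enrichment normalised to the corresponding GST SELEX round; RNA k-mers written as DNA (T for U).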

IMP3 KH3-4 = settings: construct: KH3-4 (377-579); SELEX round: R4
Description: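 SELEX-seq with GST-tagged IMP3 KH3-4 (Pro377-Lys579) and an N40 RNA pool, round 4. 6-mer z-score of sequence-tag enrichment normalised to the corresponding GST SELEX round; RNA k-mers written as DNA (T for U).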

UniProt O00425, sequence (O00425 whole entry): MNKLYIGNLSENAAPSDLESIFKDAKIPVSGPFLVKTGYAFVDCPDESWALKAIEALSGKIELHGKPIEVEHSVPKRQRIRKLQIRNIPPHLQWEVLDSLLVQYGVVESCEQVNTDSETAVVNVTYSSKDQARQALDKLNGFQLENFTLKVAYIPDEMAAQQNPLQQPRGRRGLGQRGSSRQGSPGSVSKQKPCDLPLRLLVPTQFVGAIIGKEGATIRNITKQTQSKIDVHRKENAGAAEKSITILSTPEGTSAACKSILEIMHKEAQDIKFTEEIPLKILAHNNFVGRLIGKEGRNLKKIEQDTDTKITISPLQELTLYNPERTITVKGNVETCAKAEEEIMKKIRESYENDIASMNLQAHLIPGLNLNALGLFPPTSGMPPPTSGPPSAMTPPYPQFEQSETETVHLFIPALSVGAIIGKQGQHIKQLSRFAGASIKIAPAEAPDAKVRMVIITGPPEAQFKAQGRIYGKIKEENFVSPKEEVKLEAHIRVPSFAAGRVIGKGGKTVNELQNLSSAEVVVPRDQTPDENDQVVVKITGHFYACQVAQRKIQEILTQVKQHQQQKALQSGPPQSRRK
IMP3 RRM1-2, sequence (chain, as listed by the source): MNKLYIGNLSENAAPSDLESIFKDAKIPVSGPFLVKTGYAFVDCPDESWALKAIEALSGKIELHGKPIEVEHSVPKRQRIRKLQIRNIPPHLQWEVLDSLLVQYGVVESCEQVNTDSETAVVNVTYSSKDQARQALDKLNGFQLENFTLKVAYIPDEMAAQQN
IMP3 KH1-2, sequence (chain, as listed by the source): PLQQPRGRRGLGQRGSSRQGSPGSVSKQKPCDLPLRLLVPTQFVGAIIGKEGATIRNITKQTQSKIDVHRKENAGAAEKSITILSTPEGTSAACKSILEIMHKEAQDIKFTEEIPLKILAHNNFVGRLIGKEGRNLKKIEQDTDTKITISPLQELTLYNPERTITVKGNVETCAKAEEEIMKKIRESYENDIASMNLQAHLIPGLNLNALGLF
IMP3 KH1-4, sequence (chain, as listed by the source): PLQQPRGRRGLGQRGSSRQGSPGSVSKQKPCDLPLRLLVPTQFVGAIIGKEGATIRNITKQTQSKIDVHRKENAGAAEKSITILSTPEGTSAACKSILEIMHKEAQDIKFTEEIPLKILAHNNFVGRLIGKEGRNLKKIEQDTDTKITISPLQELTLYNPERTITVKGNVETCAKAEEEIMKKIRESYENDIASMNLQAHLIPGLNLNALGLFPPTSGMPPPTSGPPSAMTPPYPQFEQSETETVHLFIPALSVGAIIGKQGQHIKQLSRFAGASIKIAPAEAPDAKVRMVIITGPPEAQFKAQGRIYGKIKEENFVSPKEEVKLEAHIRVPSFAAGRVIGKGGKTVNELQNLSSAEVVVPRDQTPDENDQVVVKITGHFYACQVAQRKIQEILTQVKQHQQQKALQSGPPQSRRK
IMP3 KH3-4, sequence (chain, as listed by the source): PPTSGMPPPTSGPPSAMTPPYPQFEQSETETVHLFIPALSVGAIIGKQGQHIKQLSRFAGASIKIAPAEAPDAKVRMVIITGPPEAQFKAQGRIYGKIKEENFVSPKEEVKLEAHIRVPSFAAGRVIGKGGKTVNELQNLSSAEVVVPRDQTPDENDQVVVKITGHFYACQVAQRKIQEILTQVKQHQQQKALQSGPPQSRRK

Row | Sequence | 6-mer SELEX enrichment z-score (IMP3 KH1-4) | 6-mer SELEX enrichment z-score (IMP3 RRM1-2) | 6-mer SELEX enrichment z-score (IMP3 full-length) | 6-mer SELEX enrichment z-score (IMP3 KH1-2) | 6-mer SELEX enrichment z-score (IMP3 KH3-4)
1 | AGGTTA | 0.187 | 0.232 | 0.016 | 0.066 | 0.296
2 | TGCGTT | -0.821 | 0.391 | -0.359 | -0.648 | -0.493
3 | ACCGTT | -0.196 | -0.327 | -0.163 | -0.102 | -0.452
4 | ATGATG | 1.59 | -0.367 | -0.084 | 0.955 | 1.83
5 | AGCCAG | -0.153 | -0.321 | 0.15 | -0.201 | -0.387
6 | GTGACA | 0.388 | -0.394 | 0.362 | 0.139 | 0.154
7 | GCGGCT | 0.326 | 0.47 | 0.846 | 0.352 | 0.683
8 | TTTGGA | -0.106 | 0.087 | -0.183 | -0.148 | 0.117
9 | AGAGAG | 0.431 | -0.58 | -0.043 | 0.321 | 0.565
10 | TAAGGC | 0.462 | 0.143 | 0.32 | 0.251 | 0.726
11 | GTAATC | -0.219 | 0.136 | -0.098 | -0.324 | -0.203
12 | GGGTAG | -0.118 | 0.308 | 0.152 | 0.132 | 0.195
13 | GTTTAG | -0.108 | 0.284 | -0.109 | -0.087 | 0.161
14 | GAACGG | 0.059 | -1.03 | 0.126 | -0.125 | 0.131
15 | GACTAG | -0.222 | -0.362 | -0.342 | -0.256 | -0.159
16 | GCGTTG | -1.35 | 0.249 | -0.595 | -1.14 | -0.955
17 | TTTAGC | 0.062 | 0.251 | -0.108 | 0.025 | 0.248
18 | TCAGCC | 0.006 | 0.51 | 0.462 | -0.026 | -0.403
19 | CCTGCA | -0.248 | 0.009 | -0.075 | -0.197 | -0.681
20 | CTTCGG | -0.286 | 0.348 | 0.122 | -0.193 | -0.199
21 | TGTGAT | 0.832 | -0.079 | -0.077 | 0.471 | 0.778
22 | TTAGGA | 0.566 | 0.093 | 0.097 | 0.342 | 0.753
23 | TTCGTC | 0.01 | 0.398 | 0.24 | -0.04 | 0.039
24 | CTCTCT | 0.267 | 0.409 | 0.072 | 0.311 | 0.11
25 | GCAAAG | -0.352 | -0.762 | -0.09 | -0.382 | -0.171
26 | TGCTCT | -0.029 | 0.323 | 0.061 | 0.08 | 0.073
27 | CCTAAC | -1.23 | -0.638 | -1.48 | -1.16 | -1.58
28 | GGTATT | -0.213 | 0.425 | -0.004 | -0.104 | 0.065

Row | Sequence | 6-mer SELEX enrichment z-score (IMP3 KH1-4) | 6-mer SELEX enrichment z-score (IMP3 RRM1-2) | 6-mer SELEX enrichment z-score (IMP3 full-length) | 6-mer SELEX enrichment z-score (IMP3 KH1-2) | 6-mer SELEX enrichment z-score (IMP3 KH3-4)
29 | TTCGGC | 1.09 | 0.39 | 1.48 | 0.779 | 0.958
30 | CTGGCA | 0.54 | 0.45 | 1.03 | 0.378 | 0.257
31 | CGCTAG | -0.444 | 0.017 | -0.232 | -0.34 | -0.363
32 | GGGAGA | 1.1 | -0.644 | 0.173 | 1.14 | 1.11
33 | AGTTGG | 0.132 | 0.397 | 0.25 | 0.182 | 0.217
34 | TCTTTA | 0.555 | 0.347 | 0.219 | 0.552 | 0.671
35 | TCAGTC | 1.03 | 0.825 | 1.18 | 0.729 | 0.483
36 | TGTGAG | 0.194 | -0.164 | -0.224 | 0.021 | 0.269
37 | CACGCT | 0.198 | 0.373 | 0.393 | 0.305 | -0.131
38 | TTGGGT | -0.033 | 0.629 | 0.224 | 0.099 | 0.269
39 | GTGTCC | -0.635 | 0.003 | -0.17 | -0.565 | -0.663
40 | GACGTC | -0.867 | -0.12 | 0.013 | -0.777 | -0.714
41 | TGAGCC | -1.46 | -0.671 | -0.856 | -1.29 | -1.41
42 | GTCGCG | 0.025 | 0.333 | 0.384 | 0.082 | 0.061
43 | ACGTTA | -0.323 | -0.24 | -0.505 | -0.464 | -0.288
44 | ATATCT | 0.594 | 0.256 | 0.241 | 0.607 | 0.584
45 | CTGACA | 0.083 | -0.133 | -0.082 | 0.247 | -0.304
46 | AACGTT | -1.03 | -0.543 | -0.933 | -1.04 | -0.924
47 | GAGAAA | 0.062 | -1.86 | -1.16 | -0.14 | 0.885
48 | AAAGGG | 0.039 | -0.929 | -0.584 | 0.195 | 0.696
49 | TTCGAA | -0.848 | -0.406 | -0.787 | -0.733 | -0.597
50 | TCTGCG | -0.667 | 0.266 | -0.114 | -0.536 | -0.518
51 | TCGCAC | 0.85 | 0.397 | 0.881 | 0.654 | 0.15
52 | ACGATG | -0.023 | -0.881 | -0.581 | -0.263 | 0.025
53 | AATCTC | -0.262 | 0.167 | -0.268 | -0.275 | -0.508
54 | ATACTT | 0.7 | 0.142 | 0.112 | 0.755 | 0.846
55 | GCAAGA | 0.207 | -0.458 | 0.138 | 0.096 | 0.397

— the supplement of paper PMC6531468
